This note sets out measurements from PubChem BioAssay (NCI).

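A five-concentration, 48-hour dose response in 96-well plates underlies each endpoint, interpolated linearly between surrounding concentrations. GI50: concentration for 50% inhibition of growth. TGI: total growth inhibition.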

The subject of this assay is NCI-H322M lung. The assay is described as follows: inhibition of tumour cell growth, NCI panel, 48 h.
As to `CN1CCCN(Cc2ccc(C(=O)Nc3cccc(Nc4ccc5cc(O)ccc5n4)c3)cc2C(F)(F)F)CC1`, the GI50 is 16.2 µM and the TGI is 29.8 µM.

As for `CC1=C(C)C(=O)C(NCCN2CCOCC2)=C(Br)C1=O`, the GI50 was 14.8 µM and the TGI was found to be 28.1 µM.

On to `COc1cc(-c2nc3cc(Cl)c(Cl)cc3[nH]2)ccc1OCc1nnc(-c2ccc(Br)cc2)o1`, for which the GI50 was 31.6 µM and the TGI was above 100 µM.

Turning to `O=c1cc(-c2ccccc2)oc2cc(OCCCCNCc3ccccc3)cc(O)c12`, the GI50 was 14.1 µM and the TGI worked out at 28.1 µM.
